# Source: the BET-seq Pho4 binding data (Le et al. 2018)
# The other results are listed elsewhere or left out. Values were computed here from the reads of four pooled replicates and scatter widely.
# Molecular target: T1, Pho4 (S. cerevisiae) (UniProt P07270)
# T1 sequence: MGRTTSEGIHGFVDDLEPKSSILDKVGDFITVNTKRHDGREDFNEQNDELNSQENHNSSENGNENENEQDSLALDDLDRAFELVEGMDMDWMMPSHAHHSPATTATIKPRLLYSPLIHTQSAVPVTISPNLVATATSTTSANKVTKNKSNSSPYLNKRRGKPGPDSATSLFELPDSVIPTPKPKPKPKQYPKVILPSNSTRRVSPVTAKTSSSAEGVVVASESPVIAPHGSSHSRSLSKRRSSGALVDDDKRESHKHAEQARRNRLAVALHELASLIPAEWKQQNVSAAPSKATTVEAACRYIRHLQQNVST
# Test: relative binding free energy (BET-seq); higher = weaker binding
# Settings: reference: library average
row,Sequence,relative binding free energy [kcal/mol]
1,GTGTTCACGTGGCGTC,0.13
2,GATTGCACGTGTGTCT,0.23
3,TGTAGCACGTGGCCGG,-0.32
4,GAGTTCACGTGTGCTG,0.35
5,AGTGTCACGTGACAGG,0.1
6,GGCTACACGTGGGTAT,0.09
7,TCAGACACGTGGGTGT,0.02
8,CAGGCCACGTGGGTGG,-0.32
9,TTGTGCACGTGTAGAT,0.23
10,TCAGTCACGTGTTGAA,0.14
11,TAGGTCACGTGTGGTC,0.19
12,AGTGCCACGTGTAGTA,-0.08
13,CGGTGCACGTGTTTAA,0.08
14,CAGGACACGTGGTTTT,0.02
15,GAGGTCACGTGCATGT,0.28
16,ACTTACACGTGTATGT,0.12
17,GGGGTCACGTGTACTT,0.22
18,GGGGGCACGTGGTCGC,-0.25
19,TGAGACACGTGTCGGT,0.01
20,AGACGCACGTGGGAGT,-0.19
21,CTTGGCACGTGCCGGG,-0.29
22,GGATGCACGTGTTCTA,0.1
23,CTAGTCACGTGATTGA,0.24

row,Sequence,relative binding free energy [kcal/mol]
1,AGGGGCACGTGCATGG,-0.21
2,TAGGGCACGTGGTGTA,-0.17
3,AGGTTCACGTGAAATC,0.56
4,TTGAACACGTGGGTGA,-0.06
5,TAAGGCACGTGTGCGT,0
6,TTGGTCACGTGCTTCT,0.13
7,GATCTCACGTGGGGTA,0.05
8,GTGTGCACGTGACAGG,0.08
9,CGTTGCACGTGTAGCG,0.06
10,TTGAGCACGTGGAGGA,-0.23
11,TTGGGCACGTGCGCAT,-0.21
12,GGCTACACGTGCGGTT,0.06
13,GGTAGCACGTGTCTAG,-0.08
14,CGTAACACGTGTTTGT,-0.04
15,TATGGCACGTGTATGA,-0.18
16,GTTAGCACGTGAGGTA,0.3
17,CTAGTCACGTGAGTTT,0.25
18,TTTTTCACGTGCAGGC,0.27
19,AGTATCACGTGAGAAG,0.34
20,TTATGCACGTGATTTT,0.16
21,TAGGCCACGTGTTATG,-0.06
22,GTATGCACGTGCGGTG,-0.01
23,GGAGGCACGTGGCGAA,-0.2

row,Sequence,relative binding free energy [kcal/mol]
1,GGTGGCACGTGGGTCG,-0.19
2,GGCGTCACGTGTAAGA,0.27
3,GTACTCACGTGTGTAG,0.14
4,GTGTACACGTGTTGAG,0.15
5,GTGTACACGTGCTTTT,0.08
6,CGGGGCACGTGCGTAG,-0.23
7,TATATCACGTGAAGTA,0.32
8,ATGGGCACGTGATGGA,0
9,AGGTTCACGTGGCCAT,0.35
10,AGAGTCACGTGGGATG,0.04
11,TTATGCACGTGGGCTA,-0.13
12,GTAGTCACGTGGAACG,0.26
13,CTCGACACGTGTGGGT,-0.03
14,TTTCCCACGTGGTGTA,-0.01
15,ACTGACACGTGTTGGG,0.05
16,TGAGGCACGTGTAGAA,-0.12
17,CTAGTCACGTGGTTTG,0.09
18,GGAACCACGTGTTTTG,0.11
19,GTCGGCACGTGTTTTC,0.13
20,GAGAGCACGTGTTTAG,-0.12
21,TGACGCACGTGGTGTG,-0.31
22,TTCAGCACGTGTGGAT,-0.04
23,GTTGACACGTGGTATG,-0.03

row,Sequence,relative binding free energy [kcal/mol]
1,AAGGTCACGTGTTAGG,0.02
2,TAGATCACGTGGTGTA,0.07
3,GTGACCACGTGGGGGT,-0.24
4,TTCGACACGTGTTTGT,0.09
5,GGTGTCACGTGGGGCG,-0.03
6,AAAAGCACGTGAGAGG,0.25
7,GAAGGCACGTGGAAGT,-0.12
8,AGTGTCACGTGAGGCA,0.13
9,GGAATCACGTGTCGGT,0.23
10,GGAGTCACGTGGGACA,0.01
11,CTTGACACGTGGTGCG,-0.02
12,TGCGGCACGTGGGTGA,-0.27
13,GGTATCACGTGTGTGC,0.24
14,TCTATCACGTGTAATG,0.31
15,TATATCACGTGTAAGC,0.23
16,TGGAGCACGTGCTCGG,-0.16
17,GAGATCACGTGATTGA,0.39
18,TCGTTCACGTGCGTGT,0.03
19,CTTGACACGTGTGCGG,0.09
20,ATGTCCACGTGGCGTT,-0.06
21,CGGATCACGTGCGTGG,0.04
22,TTTGTCACGTGTACTG,0.06
23,GATCGCACGTGGTCGG,-0.02

row,Sequence,relative binding free energy [kcal/mol]
1,GTAAACACGTGTGAGT,0.04
2,CGTTTCACGTGCAGTT,0.24
3,GCTTTCACGTGCTTGG,0.2
4,ACTTGCACGTGATTAT,0.13
5,ATTTTCACGTGGGTTC,0.27
6,ATGCACACGTGGTGTT,0.01
7,GATATCACGTGTGGGC,0.17
8,GACGTCACGTGCGGGG,0.11
9,AGTTGCACGTGAGTAT,0.04
10,TTGTACACGTGCTAGG,-0.14
11,GGTAACACGTGGATGA,0.05
12,TTTTTCACGTGCGGTA,0.32
13,AGGTCCACGTGGCGGG,-0.06
14,CTGTGCACGTGGAGCG,-0.09
15,GGGCACACGTGTAGGT,0.24
16,GGATTCACGTGGTGTC,0.31
17,CGGTTCACGTGGGTAG,0.11
18,GCGTGCACGTGTTTTG,0.02
19,ATTTGCACGTGGAAAT,0.06
20,TTGGGCACGTGGATAG,-0.07
21,AGTCACACGTGCTGTG,0.14
22,GGTTTCACGTGCAATT,0.29
23,TTAGGCACGTGAGATG,0.08
